{
  "source": "PubChem BioAssay AID463173",
  "about": "(ICCB-Longwood Screening Facility, Harvard Medical School, 2010)",
  "note": "In all, about 52,000 compounds went through this assay and about 1,700 (3.3%) were called active. Rule as the data show it: active = survival mostly below about 52% (no sharp cut-off); inactive = mostly above about 56%. This is one part of the list.",
  "data": [
    {"system": "Wild type", "assay": "growth inhibition of S. aureus wild type versus tarO mutant, primary screen, teichoic acid synthesis inhibitors, RN4220, OD600 (AID 463173)", "settings": "S. aureus RN4220 wild type/DeltatarO growth, OD600, 18 h, active compounds read low, screened at 18.75 µg/mL (by protocol)", "values": [
      {"molecule": "COc1ccc(-c2cc(C(F)(F)F)n3nc(C(=O)Nc4cc(Cl)cc(Cl)c4)cc3n2)cc1", "survival": "inactive: 75%"},
      {"molecule": "CCOC(=O)C1CCN(C(=O)Cn2nc(C)n3c(cc4cc(F)ccc43)c2=O)CC1", "survival": "inactive: 75%"},
      {"molecule": "COc1ccc(N2CCN(S(=O)(=O)CCNC(=O)Cc3ccc(Cl)cc3)CC2)cc1", "survival": "inactive: 68%"},
      {"molecule": "CCn1cc(S(=O)(=O)c2cc(C)cc(C)c2)c(=O)c2cc(F)c(N3CCCC3)cc21", "survival": "inactive: 129%"},
      {"molecule": "CCOc1ccc(CCNC(=O)c2nnc(Cc3cc(OC)c(OC)c(OC)c3)o2)cc1OCC", "survival": "inactive: 85%"},
      {"molecule": "CCCCN1C(=O)CN(C2CCCCCC2)C(=O)C1c1ccc(OCCC)c(OC)c1", "note": "(stereo not drawn)", "survival": "inactive: 87%"},
      {"molecule": "O=C(CCNc1n[nH]c(=O)[nH]c1=O)N1CCCCC1", "survival": "inactive: 101%"},
      {"molecule": "COc1ccc(OC)c(NC(=O)CSC2=Nc3ccccc3C3=NC(CC(=O)NCc4ccc5c(c4)OCO5)C(=O)N23)c1", "note": "(stereo not drawn)", "survival": "inactive: 74%"},
      {"molecule": "COc1cc(Cl)c(C)cc1NC(=O)c1sc2nc3n(c(=O)c2c1C)CCCCC3", "survival": "inactive: 84%"},
      {"molecule": "Cc1ccccc1Cn1c(=O)n(Cc2ccc(Cl)cc2)c(=O)c2cccnc21", "survival": "inactive: 82%"},
      {"molecule": "Cn1c(SCc2ccc(C(F)(F)F)cc2)nc2c([nH]c3ccccc32)c1=O", "survival": "inactive: 92%"},
      {"molecule": "O=c1cc(N2CCN(c3ccc(F)cc3)CC2)[nH]c(=O)n1-c1ccc(Br)cc1", "survival": "inactive: 130%"},
      {"molecule": "CCOC(=O)c1c(NC(=O)c2nc(SC(C)C)ncc2Cl)sc2c1CCCC2", "survival": "inactive: 89%"},
      {"molecule": "COc1cc(NC(=O)N2CCC(CN3CCCC3)CC2)cc(OC)c1OC", "survival": "inactive: 71%"},
      {"molecule": "COc1cc(C(=O)NCC(c2cccnc2)N2CCc3ccccc32)cc(OC)c1OC", "note": "(stereo not drawn)", "survival": "inactive: 83%"},
      {"molecule": "CN(C)c1ccc(C(CNS(=O)(=O)c2ccccc2)N2CCc3ccccc32)cc1", "note": "(stereo not drawn)", "survival": "inactive: 80%"},
      {"molecule": "Cc1ccc(C(=O)C2=C(O)C(=O)N(CCc3ccccc3)C2c2ccncc2)o1", "note": "(stereo not drawn)", "survival": "inactive: 106%"},
      {"molecule": "CCN(CC)C(=O)Cn1c(=O)n(Cc2ccc(C(=O)NCc3ccccc3Cl)cc2)c(=O)c2ccccc21", "survival": "inactive: 115%"},
      {"molecule": "O=C(CN1CCCC1)N1N=C(c2cccs2)CC1c1cccs1", "note": "(stereo not drawn)", "survival": "inactive: 100%"},
      {"molecule": "CCOC(=O)c1c(-c2ccc(Br)cc2)csc1NC(=O)c1ccccc1F", "survival": "inactive: 73%"},
      {"molecule": "CC(C)OC(=O)/C(C#N)=C\\c1cccs1", "survival": "inactive: 106%"},
      {"molecule": "O=C(CSc1nccn1-c1ccc(F)cc1)Nc1ccc(OC(F)(F)F)cc1", "survival": "inactive: 74%"},
      {"molecule": "COc1cc(C2C(=O)N(C3CCCCC3)CC(=O)N2Cc2ccc(C)cc2)ccc1OC(C)C", "note": "(stereo not drawn)", "survival": "inactive: 80%"},
      {"molecule": "Cc1ccc[n+](CC(=O)c2cccs2)c1", "survival": "inactive: 103%"},
      {"molecule": "O=C1CN(C(=O)c2ccccc2C(F)(F)F)C(c2ccccc2)c2cc(F)ccc2N1", "note": "(stereo not drawn)", "survival": "inactive: 66%"},
      {"molecule": "COc1cc2c(cc1OC)C(COc1ccc3c(C)cc(=O)oc3c1)N(C(=O)c1ccc(Cl)cc1)CC2", "note": "(stereo not drawn)", "survival": "inactive: 69%"},
      {"molecule": "O=C1[C@@H]2CSC(c3ccc(C(F)(F)F)cc3)N2C(=O)N1c1ccccc1", "note": "(stereo partly drawn)", "survival": "inactive: 77%"},
      {"molecule": "CCCNc1c(NC(=O)c2ccc(OCCC)cc2)c(=O)oc2ccccc12", "survival": "inactive: 78%"},
      {"molecule": "Cc1ccc2c(C)c(C(=O)N(Cc3ccc(Cl)cc3)C3CCS(=O)(=O)C3)oc2c1", "note": "(stereo not drawn)", "survival": "inactive: 55%"},
      {"molecule": "Cc1ccccc1NC(=O)CCn1cnc2onc(-c3ccc(F)cc3)c2c1=O", "survival": "inactive: 120%"},
      {"molecule": "CCC(C)(C)C1CCc2c(sc(NC(=O)C3c4ccccc4Oc4ccccc43)c2C(N)=O)C1", "note": "(stereo not drawn)", "survival": "inactive: 120%"},
      {"molecule": "COCCNC(=O)c1cn(Cc2cccc3ccccc23)nn1", "survival": "inactive: 115%"},
      {"molecule": "CN1CCC(OC(=O)c2ccco2)CC1", "survival": "inactive: 94%"},
      {"molecule": "O=S(=O)(c1ccccc1)c1nc(-c2cccs2)oc1SCc1ccccc1F", "survival": "inactive: 77%"},
      {"molecule": "Cc1ccc(C)c(N2CCN(CCCNC(=O)Cn3ncc4c5ccccc5n(C)c4c3=O)CC2)c1", "survival": "inactive: 80%"},
      {"molecule": "CCCCC(CC)CNC(=O)C1CCN(S(=O)(=O)c2cccc3nsnc23)CC1", "note": "(stereo not drawn)", "survival": "inactive: 96%"},
      {"molecule": "Cc1ccc(C(C(=O)NC2CCCCC2)N(C(=O)Cc2c[nH]c3ccccc23)C2CC2)o1", "note": "(stereo not drawn)", "survival": "inactive: 100%"},
      {"molecule": "CC(C)(C)NS(=O)(=O)c1ccc(-c2nnc(SCC(=O)c3ccc(F)cc3)o2)cc1", "survival": "inactive: 111%"},
      {"molecule": "CCOc1ccc(NC(=O)CCn2cnc3onc(-c4ccc(F)cc4)c3c2=O)cc1", "survival": "inactive: 53%"},
      {"molecule": "Cc1ccc(NS(=O)(=O)c2c(C(=O)N3CCC(C)CC3)c(C)n(C)c2C)cc1Cl", "survival": "inactive: 131%"},
      {"molecule": "COc1ccccc1N1CCN(C(=O)c2cc3c(=O)n(Cc4ccco4)ccc3nc2C)CC1", "survival": "inactive: 73%"},
      {"molecule": "N#Cc1nc(-c2ccc(COc3ccc(Cl)cc3)o2)oc1N1CCN(c2ccccc2)CC1", "survival": "inactive: 85%"},
      {"molecule": "CCOC(=O)c1c(S(=O)(=O)N2CCCC(C(=O)N3CCN(c4cccc(C)c4C)CC3)C2)c(C)n(C)c1C", "note": "(stereo not drawn)", "survival": "inactive: 70%"},
      {"molecule": "c1ccc(-c2nc(N3CCCCC3)nc3ccccc23)cc1", "survival": "inactive: 99%"},
      {"molecule": "COc1cccc(CNCC(=O)N2C(C)CCCC2C)c1", "note": "(stereo not drawn)", "survival": "inactive: 102%"},
      {"molecule": "O=C(CSc1nc2c(oc3ccccc32)c(=O)n1-c1ccccc1F)Nc1ccccc1", "survival": "inactive: 139%"},
      {"molecule": "Cc1ccc(CN2CCSc3ccc(C(=O)N4CCN(c5cc(C)ccc5C)CC4)cc32)cc1", "survival": "inactive: 20%"},
      {"molecule": "CC(=O)Nc1ccc(C(=O)CSc2nc3ccccc3n2CC(=O)N2CCCC2)cc1", "survival": "inactive: 102%"},
      {"molecule": "O=C(CSc1nnnn1Cc1ccccc1)NCCc1ccccc1", "survival": "inactive: 118%"},
      {"molecule": "CC(C)CN1CCc2nc(N3CCN(C)CC3)ncc2C1", "survival": "inactive: 84%"},
      {"molecule": "Cn1c(=O)cc(SCC(=O)N2CCN(c3ccc(F)cc3)CC2)c2ccc(Cl)cc21", "survival": "inactive: 84%"},
      {"molecule": "Cc1ccc(Nc2c3c(nc4nncn24)CCC3)cc1C", "survival": "inactive: 76%"},
      {"molecule": "O=C(COc1ccccc1)Nc1ncn[nH]1", "survival": "inactive: 113%"},
      {"molecule": "O=C(CN1C(=O)COc2ccc(S(=O)(=O)N3CCOCC3)cc21)NCc1ccc(F)cc1", "survival": "inactive: 94%"},
      {"molecule": "CCOC(=O)c1c(C)oc2nc(C)nc(NCc3ccc(Cl)cc3)c12", "survival": "inactive: 90%"},
      {"molecule": "CCn1cc(C(=O)N2CCN(c3ccccc3F)CC2)c(=O)c2cc(S(=O)(=O)N(C)C3CCCCC3)ccc21", "survival": "inactive: 83%"},
      {"molecule": "COc1cc(NC(=O)c2ccccc2)ccc1NC(=O)c1cc2ccccc2o1", "survival": "inactive: 85%"},
      {"molecule": "CC(C)NC(=O)c1nc2ccccc2s1", "survival": "inactive: 120%"},
      {"molecule": "Cc1cccc(NC(=O)CSc2nc(-c3ccco3)nc3cc(=O)[nH]n23)c1", "survival": "inactive: 66%"},
      {"molecule": "COc1ccc(-c2cc3ccc(O)c(CN4CCOCC4)c3oc2=O)cc1", "survival": "inactive: 89%"},
      {"molecule": "CC(=O)N1CCc2cc(Br)cc(S(=O)(=O)N3CCC(C(=O)N(C)c4cc(C)ccc4C)CC3)c21", "survival": "inactive: 84%"},
      {"molecule": "COc1ccc(-c2ccc3c(N)c(C(=O)NCc4ccc(Cl)cc4)sc3n2)cc1", "survival": "inactive: 107%"},
      {"molecule": "Cc1ccc(S(=O)(=O)N2CCNCC2)cc1", "survival": "inactive: 113%"},
      {"molecule": "COC(=O)c1c(SC)nc2ccccc2c1OCc1ccccc1C", "survival": "inactive: 79%"},
      {"molecule": "O=C(CCn1c(=O)c2ccccc2n(Cc2ccc(F)cc2Cl)c1=O)NCc1ccc2c(c1)OCO2", "survival": "inactive: 91%"},
      {"molecule": "CCc1ccc(NC(=O)C2CCN(S(=O)(=O)c3ccc4[nH]c5c(c4c3)CCCCC5)CC2)cc1", "survival": "inactive: 73%"},
      {"molecule": "CCOC(=O)C1CCN(C(=O)C2CCN(C3=NS(=O)(=O)C(c4ccc(C)cc4)=C3CC)CC2)CC1", "survival": "inactive: 126%"},
      {"molecule": "Cc1cccc(C)c1NC(=O)Cn1c(=O)n(CC2CCC(C(=O)NCCc3ccccc3)CC2)c(=O)c2ccccc21", "note": "(stereo not drawn)", "survival": "inactive: 143%"},
      {"molecule": "CCOC(=O)c1noc2ncnc(Nc3ccc(F)cc3F)c12", "survival": "inactive: 127%"},
      {"molecule": "Cn1cc(S(=O)(=O)N2CCCCCC2)cc1C(=O)N1CCN(c2cccc(Cl)c2)CC1", "survival": "inactive: 54%"},
      {"molecule": "CC(=O)c1ccc(S(=O)(=O)Nc2cccc(-c3ccc(N4CCCCC4)nn3)c2)cc1", "survival": "inactive: 87%"},
      {"molecule": "Cc1ccc(CNC(=O)C2CCN(c3nc4ccccc4n(C)c3=O)CC2)cc1", "survival": "inactive: 82%"},
      {"molecule": "CCOC(=O)CSc1nc2c(sc3ccccc32)c(=O)n1CCc1ccccc1", "survival": "inactive: 75%"},
      {"molecule": "O=[N+]([O-])c1cc(-c2nc(-c3ccccc3)no2)ccc1N1CCN(c2ccccc2)CC1", "survival": "inactive: 84%"},
      {"molecule": "CCCOc1ccc(CNC(=O)C(CC)n2nc(C)c3sc4ccccc4c3c2=O)cc1", "note": "(stereo not drawn)", "survival": "inactive: 82%"},
      {"molecule": "CCOc1ccc2nc(C)cc(Nc3ccccc3OCC)c2c1", "survival": "inactive: 132%"},
      {"molecule": "Cc1ccc(Cl)cc1N1CCN(C(=O)CCC(=O)Nc2ccc3nc(N4CCC(C)CC4)cc(C)c3c2)CC1", "survival": "inactive: 83%"},
      {"molecule": "Cc1ccc(C(=O)O)cc1Nc1nc2ccccc2n2nnnc12", "survival": "inactive: 80%"},
      {"molecule": "Cc1ccc(NC(=O)Cn2nnc(-c3nc(-c4ccncc4)no3)c2N)cc1", "survival": "inactive: 129%"},
      {"molecule": "CC12CN3CC(C)(CN(C1)C3(C)CSc1c[nH]c3ccccc13)C2=O", "note": "(stereo not drawn)", "survival": "inactive: 108%"},
      {"molecule": "O=C(OCc1nc(-c2ccccc2)oc1COC(=O)c1ccco1)c1ccco1", "survival": "inactive: 110%"},
      {"molecule": "Nc1c(Cl)ncnc1NCCO", "survival": "inactive: 95%"},
      {"molecule": "COCCNC(=O)c1c(C)oc2nc(C)nc(N3CCOCC3)c12", "survival": "inactive: 81%"},
      {"molecule": "Cc1cccc(-c2cc3nc4c(c(N5CCN(Cc6ccc7c(c6)OCO7)CC5)n3n2)CCCC4)c1", "survival": "inactive: 111%"},
      {"molecule": "CCOC(=O)c1cccc(NC(=O)c2ccc3c(Cl)c4c(nc3c2)CCC4)c1", "survival": "inactive: 77%"},
      {"molecule": "O=C(NCCCN1CCN(c2ccc(F)cc2)CC1)Nc1ccc(Cl)cc1", "survival": "inactive: 64%"},
      {"molecule": "COc1ccc(C2c3c(-c4c(C)cc(C)cc4O)n[nH]c3C(=O)N2Cc2ccco2)cc1", "note": "(stereo not drawn)", "survival": "inactive: 15%"},
      {"molecule": "COc1cccc(-c2nc(CS(=O)(=O)CC(=O)NCc3ccc(C)cc3)c(C)o2)c1", "survival": "inactive: 83%"}
    ]}
  ]
}
